About 17,000 (4.7%) of roughly 360,000 compounds were called active. This list was built around the results that the source calls inconclusive (neither active nor inactive); the mix of calls is not that of the screen. Cut-off read from the data, not from the text of the source: active = activity change below about -50%; inconclusive = mostly about -30% to -49%; inactive = weaker than that.
Experiment: qHTS for Inhibitors of Inflammasome Signaling: IL-1-beta AlphaLISA Primary Screen
Details: THP-1 LPS/ATP IL-1B secretion, 16 h; at 57.5 µM, active compounds read low
Outline: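 Secreted IL-1B measured by AlphaLISA bead assay after 16 h compound exposure of THP-1 cells; compounds (final up to 57.5 uM) added 1 h before LPS (250 ng/mL) and ATP (1.25 mM) stimulation; lower signal means less secretion.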
% is set by controls: 0 for no effect and ±100 for the full control effect.

Activity change, active:
C/C(=N/Nc1ccnc2cc(Cl)ccc12)c1ccc(O)cc1 -54.2%
CC1=CN2C(=N)/C(=C/c3ccc(Sc4ccc(Cl)cc4)o3)C(=O)N=C2S1 -68.7%
C=CCn1c(SCC(=O)NCCCC)nc2scc(-c3ccco3)c2c1=O -68.5%
O=C(Nc1ccc2c(c1)OCCO2)c1cccc(Br)c1 -54%
COC(=O)c1[nH]c2ccc(Br)cc2c1NC(=O)C(C)N1CCN(C2CCCCC2)CC1 (stereo unspecified) -81.8%
N=c1c(S(=O)(=O)c2ccccc2)cc2c(=O)n3ccccc3nc2n1Cc1ccco1 -79.5%
COc1cccc(-n2ccnc2SCC(=O)Nc2ccccc2F)c1 -70.2%
CCn1c(SCC(=O)Nc2nc3ccc(C)cc3s2)nc2c(c1=O)SC(C)C2 (stereo unspecified) -83.3%
O=C1C=CC(O)(c2cc(=O)c3c(O)cc(O)cc3o2)C=C1 -104%
Cc1oc(C(C)(C)C)cc1C(=O)N1CCN(C(c2ccccc2)c2ccccc2)CC1 -68.5%
COc1ccc(C(C(=O)NC2CCCCC2)N(C(=O)CCl)c2cccc(Cl)c2)cc1 (stereo unspecified) -110%

Activity change, inactive:
CC1CCCCC1NC(=O)C1CCC(CNS(=O)(=O)c2ccccc2)CC1 (stereo unspecified) 37.6%
CCc1ccc(C(=O)NNC(=O)c2ccc(=O)n(C)n2)cc1 -9.31%
Cc1nn(-c2ccccc2)c(C)c1C(=O)OCC(=O)Nc1ccccc1F -14.6%
Cc1ccc(N(CC(O)CN2CCOCC2)S(=O)(=O)c2ccc3ccccc3c2)cc1 (stereo unspecified) -3.19%
CC1(C(=O)NS(=O)(=O)c2ccccc2Cl)CCN1C(=O)c1ccccc1 (stereo unspecified) -16.7%
Cn1nc(C(=O)OCC(=O)N2CCc3ccccc32)c2ccccc2c1=O 16.6%
O=C(Nc1ccc(C(=O)N2CCCCC2)cc1)c1ccccc1Br -6.42%
Cc1c(NC(=O)c2cnn3c2NC(c2ccco2)CC3C(F)(F)F)c(=O)n(-c2ccccc2)n1C (stereo unspecified) -0.895%
O=C(Cc1cccc2ccccc12)NCC(=O)Nc1ccccc1F 22%
CN(C)CCCOC(=O)N1c2ccccc2C=Cc2ccccc21 -17.1%
CC1(C(=O)Nc2ccc(Cl)c(Cl)c2)CCN1Cc1cc2ccccc2o1 (stereo unspecified) 0%
CCN1C(=O)N[C@@H](c2ccccc2)[C@H](C(=O)OC)[C@H]1C 0.539%
COc1ccc(-c2cc3nc4n(c(=O)c3s2)CCC4)cc1 0%
COc1cc(C(=O)NC(=S)NNC(=O)[C@H]2C[C@@H]2c2ccccc2)cc(OC)c1OC 62%
CCCCNC(=O)C1(C)CCN1C(=O)c1ccncc1 (stereo unspecified) 7.68%
CCn1nnnc1SCC(=O)N1c2ccccc2NC(=O)CC1C (stereo unspecified) -5.86%
CC(C)C[C@H]1COc2cc(N3CCC[C@@H]3CO)ccc2S(=O)(=O)N1 86.4%

Activity change, inconclusive:
N#Cc1ccccc1/C=N/Nc1nc(-c2ccccc2)c2cc(Br)ccc2n1 -46.9%
COc1ccc(CNC(=O)Nc2nc(C(N)Cc3ccc(F)cc3)cs2)cc1 (stereo unspecified) -37.9%
CC(C)(C)n1ncc2c(=O)n(Cc3ccc(Cl)cc3Cl)cnc21 -43.4%
CSCCC1NC2(C(=O)Nc3c2ccc(Cl)c3C)[C@@H]2C(=O)N(C3CCCC3)C(=O)[C@H]12 (stereo partly specified) -35.2%
COc1cccc(-c2nnc(SCC(=O)NCc3ccc4c(c3)OCO4)n2Cc2ccco2)c1 -33%
CCN(C(=O)/C=C/c1ccccc1)C1CCCCC1 -30.5%
O=C(Nc1ccc(S(=O)(=O)N2CCCC2)cc1)c1cccc(OC(F)F)c1 -37.8%
COc1cc(/C=C/C(=O)OCC(=O)Nc2ccc(NC(C)=O)cc2)cc(S(=O)(=O)N2CCc3ccccc32)c1OC -36%
Fc1ccc(Nc2nnns2)cc1 -32.3%
CCOc1ccc2nc3ccc4[nH]onc4c3c2c1 -40.2%
CCN(CC)CCN(C(=O)c1cc2ccccc2cc1OC)c1nc2ccc(OC)cc2s1 -40.5%
Cc1cc(OCC(=O)Nc2ccc(CCO)cc2)c2c(C)c(C)c(=O)oc2c1 -49.2%
O=c1c(Cc2c(F)cccc2Cl)c(O)ccn1C1CCCCCC1 -36.3%
CSc1ccc(CN(C)CC(=O)NC(C)c2ccccc2)cc1 (stereo unspecified) -40.7%
CSc1ccc(Cl)c(C(=O)NCCOc2cc(C(C)C)ccc2C)c1 -33.6%
COc1ccc(C(CNC(=O)c2cc3c(s2)CCC(C)C3)N2CCCC2)cc1 (stereo unspecified) -46.7%
CC(C)N(Cc1ccccc1)C(=S)Nc1ccc(OC(F)F)cc1 -32.4%
Cc1ccc2cc(C#N)c(N3CCCN(C(=S)NCCCN(C)C)CC3)nc2c1 -38.3%
CN(CCc1ccccc1)C(=O)c1ccc(NC(=O)Cc2ccc([N+](=O)[O-])cc2)cc1 -49.1%
COc1ccc(-n2c(SCc3ccc([N+](=O)[O-])cc3)nnc2-c2ccccc2)cc1 -39.3%
CCC1CCCCN1Cc1ccc(CNC(=O)CCc2nnc3ccc(N4CCCCC4)nn23)o1 (stereo unspecified) -38.4%
CCc1ccccc1NC(=O)Nc1ccon1 -42.5%
Clc1ccc(-n2c(SC/C=C/c3ccccc3)nnc2-c2cccnc2)cc1 -44.9%
O=C(C[n+]1ccc(Cc2ccccc2)cc1)Nc1ccc([N+](=O)[O-])cc1Cl -42.8%
COc1ccc(C(C)(C)C)cc1NS(=O)(=O)c1cccc2cccnc12 -30.6%
COC(=O)c1ccc(OCCN2C3=NCCN3c3ccccc32)cc1 -35.7%
CC(C)Cn1cnc2c(c1=N)C(c1ccccc1)C1=C(CC(C)(C)CC1=O)O2 (stereo unspecified) -46.9%
CCOc1ccc(C(C(=O)NC2CCCC2)N(Cc2ccccc2)C(=O)c2nsc(Cl)c2Cl)cc1 (stereo unspecified) -34.9%
